# Measured values taken from article PMC4336329 (PLoS ONE, 2015).
# Hit rate of the full screen: of about 310,000 compounds, about 14,000 (4.5%) showed an effect of 50% or more. The effect is printed as a negative number. The list shows a part of the results.
# Molecular target: human ether-à-go-go-related gene (hERG) potassium channel (human, UniProt Q12809)
# Assay: primary screen, population patch clamp on CHO cells stably expressing hERG
# 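Further: peak tail current of the secondary pulse compared with the same well before compound.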
# Sequence of human ether-à-go-go-related gene (hERG) potassium channel (Q12809 whole entry, looked up): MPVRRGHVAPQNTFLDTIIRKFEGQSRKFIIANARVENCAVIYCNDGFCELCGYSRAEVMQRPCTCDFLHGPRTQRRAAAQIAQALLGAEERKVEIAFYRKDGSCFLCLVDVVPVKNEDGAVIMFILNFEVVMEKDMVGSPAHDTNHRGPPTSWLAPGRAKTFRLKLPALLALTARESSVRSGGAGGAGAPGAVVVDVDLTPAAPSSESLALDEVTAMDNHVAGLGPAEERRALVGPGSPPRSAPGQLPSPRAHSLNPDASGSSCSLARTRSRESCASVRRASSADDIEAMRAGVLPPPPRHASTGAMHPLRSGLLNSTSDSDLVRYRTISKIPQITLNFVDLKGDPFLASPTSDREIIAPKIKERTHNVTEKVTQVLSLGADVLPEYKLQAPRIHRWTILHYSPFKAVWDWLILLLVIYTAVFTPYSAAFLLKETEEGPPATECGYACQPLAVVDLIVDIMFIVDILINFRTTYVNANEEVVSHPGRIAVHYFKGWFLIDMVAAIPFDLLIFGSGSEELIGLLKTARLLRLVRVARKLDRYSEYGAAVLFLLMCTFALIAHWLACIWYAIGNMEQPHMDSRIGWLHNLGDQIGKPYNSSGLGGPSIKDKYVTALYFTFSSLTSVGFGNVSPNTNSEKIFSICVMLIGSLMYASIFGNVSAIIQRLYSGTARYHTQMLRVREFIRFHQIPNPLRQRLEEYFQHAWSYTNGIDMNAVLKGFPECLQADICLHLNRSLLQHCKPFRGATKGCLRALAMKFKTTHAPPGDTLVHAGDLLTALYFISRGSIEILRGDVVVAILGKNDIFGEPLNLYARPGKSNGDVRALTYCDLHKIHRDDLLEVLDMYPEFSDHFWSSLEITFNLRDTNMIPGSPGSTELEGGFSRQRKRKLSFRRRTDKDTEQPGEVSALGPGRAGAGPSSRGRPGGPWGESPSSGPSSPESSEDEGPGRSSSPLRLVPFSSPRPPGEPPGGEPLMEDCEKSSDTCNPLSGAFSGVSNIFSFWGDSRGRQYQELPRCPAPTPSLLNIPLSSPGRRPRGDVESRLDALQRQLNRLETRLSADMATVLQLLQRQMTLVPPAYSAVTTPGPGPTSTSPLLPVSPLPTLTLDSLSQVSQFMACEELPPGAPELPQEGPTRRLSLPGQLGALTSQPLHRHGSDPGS
row,Structure (SMILES),"hERG current change (%, negative = inhibition) at 10uM"
1,O=C(O)C1Nc2c(cccc2C(F)(F)F)C2C=CCC12 (stereo not drawn),17.9%
2,Cc1cccc(N=C2NC(=O)/C(=C/C=C/c3ccco3)S2)c1,12.1%
3,N#CC(c1ccc(Cl)cc1)N1CCOCC1 (stereo not drawn),21.1%
4,COC(=O)c1ccccc1SCC(=O)Nc1ccc(N2CCOCC2)cc1,11.7%
5,COC(=O)c1sccc1NC(=O)c1ccc(OC)c(OC)c1,0.72%
6,COCCCNc1oc(/C=C/c2ccccc2)nc1C#N,-3.78%
7,Cc1oc(-c2cccs2)nc1CN1CCC(CO)(CCOc2ccccc2)CC1,-67%
8,O=C(COC(=O)CSc1ccc2ccccc2c1Br)NC1CC1,11.5%
9,CC1Nc2nc(N(C)C)[nH]c(=O)c2NC1C.Cl.O (stereo not drawn),2.37%
10,O=C(Nc1sc2c(c1C(=O)NCCO)CCCC2)c1ccco1,-36%
11,Cc1ccc(-c2cc(-c3ccccc3)nc(N)c2C#N)o1,17.1%
12,Cc1ccc(-n2ncc3c(NCc4cccnc4)ncnc32)cc1C,-18.5%
13,O=S(=O)(NCCN1CCCC1)c1cccc2cccnc12,4.11%
14,COC(=O)c1cccnc1-n1c(=O)c2cccnc2n(Cc2ccc(Cl)cc2)c1=O,-26.6%
15,COc1ccc(-c2noc(CCC(=O)NC3CCCCCC3)n2)cc1,-4.89%
16,CCc1cc2c3c(c1)C1(C(=O)N3C(C)(C)C=C2C)C(C#N)=C(N)Oc2[nH]c(=O)[nH]c(=O)c21 (stereo not drawn),3.95%
17,CC(=O)c1cccc(NC2c3ncccc3C(=O)N2Cc2ccco2)c1 (stereo not drawn),-10.6%
18,N#Cc1c(F)cccc1NCc1cccs1,5.69%
19,Cc1ccc(/C=C/C(=O)c2ccccc(=O)c2O)cc1C,-24.6%
20,Cc1cc(C(=O)CSc2nc3ccccc3[nH]2)c(C)n1Cc1ccco1,9.65%
21,CCOc1ccc(-c2[nH]ncc2Oc2cccc(OC)c2)c(O)c1,-8.67%
22,CC(C)c1ccc(N=C(N)N=C(N)N)cc1.Cl,-47.1%
23,COC(=O)CCCCCCCCCCN1CCCCC1,-17.3%
24,O=C(NC1CCCCCCC1)c1cccc(Cl)c1,19.9%
25,Cc1c(C(=O)N2CCOCC2)c(S(=O)(=O)N2CCN(c3ccc(Cl)cc3)CC2)c(C)n1C,-37.6%
26,CCCCC(CC)COC(=O)CCCCC(=O)OCC(CC)CCCC (stereo not drawn),15.8%
27,COc1ccccc1C(=O)COC(=O)CNC(=O)c1ccc(Br)o1,-50.7%
